The other results are listed elsewhere or left out. Most values come without repeats; read them as rough.
Legend:
Experiment in all cases: cell count relative to DMSO control; melanoma cells; higher = more viable cells
Conditions in all cases: library dose: standard library concentration; 72 h
[1] = tested on: G361
[2] = tested on: IPC-298
[3] = tested on: IST-MEL1
[4] = tested on: LOXIMVI
[5] = tested on: MEL-HO
[6] = tested on: MeWo
[7] = tested on: RPMI7951
[8] = tested on: RVH-421
[9] = tested on: LB2518-MEL
[10] = tested on: MZ2-MEL
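Note: cells treated in 1,536-well plates, then fixed and DAPI-stained, with nuclei counted from automated high-throughput microscope images.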

Row | Structure (SMILES) | cell count [1] [%] | cell count [2] [%] | cell count [3] [%] | cell count [4] [%] | cell count [5] [%] | cell count [6] [%] | cell count [7] [%] | cell count [8] [%] | cell count [9] [%] | cell count [10] [%]
1 | Cn1cnc2c(F)c(Nc3ccc(Br)cc3Cl)c(C(=O)NOCCO)cc21 [selumetinib] + COc1cc(N2CCC(N3CCN(C)CC3)CC2)ccc1Nc1ncc(Cl)c(Nc2ccccc2S(=O)(=O)C(C)C)n1 [NVP-TAE684] (first compound 0.075 µM, partner dose 0.4 µM) | 50.6 | 52.2 | 111 | 109 | 69.6 | 55.4 | 91.7 | 91 | – | –
2 | C[C@]1(O)C[C@@H](c2nc(-c3ccc4ccc(-c5ccccc5)nc4c3)c3c(N)nccn32)C1 + Cn1cc(/C=C2\C(=O)Nc3cccnc32)c2ccccc21 [GW441756] (first compound 2 µM, partner dose 2 µM) | 92.1 | 89.9 | 118 | 59.2 | 100 | 89.4 | 92.8 | 114 | – | –
3 | C[C@]1(O)C[C@@H](c2nc(-c3ccc4ccc(-c5ccccc5)nc4c3)c3c(N)nccn32)C1 + C=CCNC1=C2C[C@@H](C)C[C@H](OC)[C@H](O)[C@@H](C)/C=C(\C)[C@H](OC(N)=O)[C@@H](OC)/C=C\C=C(/C)C(=O)NC(=CC1=O)C2=O [Tanespimycin] (first compound 2 µM, partner dose 0.01 µM) | 73.4 | 76.6 | 73.7 | 76.1 | 96.2 | 59.7 | 34.1 | 107 | 68.4 | 97.1
4 | Cn1cnc2c(F)c(Nc3ccc(Br)cc3Cl)c(C(=O)NOCCO)cc21 [selumetinib] + C=C(c1ccc(C(=O)O)cc1)c1cc2c(cc1C)C(C)(C)CCC2(C)C [Bexarotene] (first compound 0.075 µM, partner dose 10 µM) | 60.8 | 63.9 | 76.9 | 109 | 62.8 | 81.4 | 100 | 63.1 | – | –
5 | CCN(CC)CCNC(=O)c1c(C)[nH]c(/C=C2\C(=O)Nc3ccc(F)cc32)c1C [sunitinib] + Cn1c(=O)n(-c2ccc(C(C)(C)C#N)cc2)c2c3cc(-c4cnc5ccccc5c4)ccc3ncc21 [NVP-BEZ235] (first compound 2 µM, partner dose 0.02 µM) | 39.3 | 68.5 | 73.2 | 121 | 58.4 | 55.6 | 61.1 | 84.1 | 64.5 | 89.9
6 | CCN(CC)CCNC(=O)c1c(C)[nH]c(/C=C2\C(=O)Nc3ccc(F)cc32)c1C [sunitinib] + CC1(C)NC(=O)N(c2ccc([N+](=O)[O-])c(C(F)(F)F)c2)C1=O [nilutamide] (first compound 2 µM, partner dose 5 µM) | 75.1 | 71.5 | 78.1 | 80.2 | 82.5 | 44.2 | 59.1 | 114 | – | –
7 | COc1cc([C@@H]2c3cc4c(cc3[C@@H](O[C@@H]3O[C@@H]5CO[C@@H](C)O[C@H]5[C@H](O)[C@H]3O)[C@H]3COC(=O)[C@H]23)OCO4)cc(OC)c1O [etoposide] + Cn1cc(/C=C2\C(=O)Nc3cccnc32)c2ccccc21 [GW441756] (first compound 0.1 µM, partner dose 2 µM) | 88.2 | 71.2 | 96.3 | 96.5 | 95 | 91.3 | 98.7 | 109 | 71.1 | 65.9
8 | C[C@]1(O)C[C@@H](c2nc(-c3ccc4ccc(-c5ccccc5)nc4c3)c3c(N)nccn32)C1 + CC(=O)c1c(C)c2cnc(Nc3ccc(N4CCNCC4)cn3)nc2n(C2CCCC2)c1=O [palbociclib] (first compound 2 µM, partner dose 0.2 µM) | 63.4 | 68.7 | 85.3 | 70.8 | 84.8 | 56.6 | 69.1 | 70.3 | – | –
9 | CCN(CC)CCNC(=O)c1c(C)[nH]c(/C=C2\C(=O)Nc3ccc(F)cc32)c1C [sunitinib] + C[C@@H](Oc1cc(-c2cnn(C3CCNCC3)c2)cnc1N)c1c(Cl)ccc(F)c1Cl [Crizotinib] (first compound 2 µM, partner dose 1 µM) | 80.4 | 76.1 | 91.7 | 149 | 92.9 | 44.1 | 59.1 | 82.9 | 59.4 | 85.6
10 | C[C@]1(O)C[C@@H](c2nc(-c3ccc4ccc(-c5ccccc5)nc4c3)c3c(N)nccn32)C1 + C[C@@H]1CCN(C(=O)CC#N)C[C@@H]1N(C)c1ncnc2[nH]ccc12 [CP690550] (first compound 2 µM, partner dose 5 µM) | 90.9 | 97.1 | 105 | 76.2 | 87 | 86.4 | 74 | 136 | – | –
11 | COc1cc([C@@H]2c3cc4c(cc3[C@@H](O[C@@H]3O[C@@H]5CO[C@@H](C)O[C@H]5[C@H](O)[C@H]3O)[C@H]3COC(=O)[C@H]23)OCO4)cc(OC)c1O [etoposide] + O=c1cc(-c2cccc3c2Sc2ccccc2S3)oc(N2CCOCC2)c1 [KU55933] (first compound 0.1 µM, partner dose 5 µM) | 82 | 71.8 | 107 | 108 | 82.7 | 86.1 | 88.8 | 87.2 | – | –
12 | CCN(CC)CCNC(=O)c1c(C)[nH]c(/C=C2\C(=O)Nc3ccc(F)cc32)c1C [sunitinib] + CCc1ccc(CCOc2ccc(CC3SC(=O)NC3=O)cc2)nc1 [pioglitazone] (first compound 2 µM, partner dose 10 µM) | 99 | 92 | 101 | 84.7 | 88 | 71.2 | 84.9 | 87.7 | 79.9 | 133
13 | CCN(CC)CCNC(=O)c1c(C)[nH]c(/C=C2\C(=O)Nc3ccc(F)cc32)c1C [sunitinib] + O=C(Nc1ccccc1)c1cc([N+](=O)[O-])ccc1Cl [GW9662] (first compound 2 µM, partner dose 10 µM) | 85.2 | 101 | 107 | 85.8 | 102 | 57.7 | 86 | 63.9 | – | –
14 | Cn1cnc2c(F)c(Nc3ccc(Br)cc3Cl)c(C(=O)NOCCO)cc21 [selumetinib] + COc1ccc(C2=N[C@@H](c3ccc(Cl)cc3)[C@@H](c3ccc(Cl)cc3)N2C(=O)N2CCNC(=O)C2)c(OC(C)C)c1 [Nutlin-3] (first compound 0.075 µM, partner dose 0.5 µM) | 53 | 45.6 | 86.2 | 86.4 | 88.2 | 83.9 | 109 | 55.2 | 39.1 | 52.5
15 | COc1cc([C@@H]2c3cc4c(cc3[C@@H](O[C@@H]3O[C@@H]5CO[C@@H](C)O[C@H]5[C@H](O)[C@H]3O)[C@H]3COC(=O)[C@H]23)OCO4)cc(OC)c1O [etoposide] + Cn1nnc2c(C(N)=O)ncn2c1=O [temozolomide] (first compound 0.1 µM, partner dose 10 µM) | 88.5 | 68.2 | 89.9 | 83.9 | 96.7 | 95.8 | 135 | 80.9 | – | –
16 | C[C@]1(O)C[C@@H](c2nc(-c3ccc4ccc(-c5ccccc5)nc4c3)c3c(N)nccn32)C1 + COc1ccc(-c2ccc3c(N4CCOCC4)nc(N4C[C@@H](C)O[C@@H](C)C4)nc3n2)cc1CO [KU0063794] (first compound 2 µM, partner dose 0.1 µM) | 58.8 | 64.9 | 100 | 72.8 | 77.9 | 70.8 | 90.7 | 129 | – | –
17 | Cn1cnc2c(F)c(Nc3ccc(Br)cc3Cl)c(C(=O)NOCCO)cc21 [selumetinib] + O=C(O)c1ccc2c(c1)nc(Nc1cccc(Cl)c1)c1ccncc12 [CX4945] (first compound 0.075 µM, partner dose 2 µM) | 31.7 | 37.2 | 87.8 | 80.2 | 40.9 | 67.2 | 122 | 57.8 | – | –
18 | CCN(CC)CCNC(=O)c1c(C)[nH]c(/C=C2\C(=O)Nc3ccc(F)cc32)c1C [sunitinib] + O=C(O)C(=O)Nc1sc2c(c1C(=O)O)CCNC2 [TCS401] (first compound 2 µM, partner dose 8.33333 µM) | 80 | 77.1 | 114 | 88.4 | 93.3 | 55.9 | 57.9 | 72.1 | – | –
19 | CCN(CC)CCNC(=O)c1c(C)[nH]c(/C=C2\C(=O)Nc3ccc(F)cc32)c1C [sunitinib] + CS(=O)(=O)CCNCc1ccc(-c2ccc3ncnc(Nc4ccc(OCc5cccc(F)c5)c(Cl)c4)c3c2)o1 [lapatinib] (first compound 2 µM, partner dose 4 µM) | 8.38 | 67.6 | 96.5 | 110 | 58.4 | 50.9 | 11.1 | 90.8 | – | –
20 | COc1cc([C@@H]2c3cc4c(cc3[C@@H](O[C@@H]3O[C@@H]5CO[C@@H](C)O[C@H]5[C@H](O)[C@H]3O)[C@H]3COC(=O)[C@H]23)OCO4)cc(OC)c1O [etoposide] + COC(=O)c1sccc1S(=O)(=O)Nc1ccc(Nc2ccccc2)cc1OC [GSK0660] (first compound 0.1 µM, partner dose 5 µM) | 95.8 | 93.5 | 112 | 137 | 104 | 85.8 | 129 | 91.8 | – | –
21 | COc1cc([C@@H]2c3cc4c(cc3[C@@H](O[C@@H]3O[C@@H]5CO[C@@H](C)O[C@H]5[C@H](O)[C@H]3O)[C@H]3COC(=O)[C@H]23)OCO4)cc(OC)c1O [etoposide] + O=C(/C=C/c1cccnc1)NCCCCC1CCN(C(=O)c2ccccc2)CC1 [FK866] (first compound 0.1 µM, partner dose 0.05 µM) | 2.5 | 22.7 | 64.3 | 72.6 | 43.5 | 82.8 | 89 | 39.7 | – | –
22 | COc1cc([C@@H]2c3cc4c(cc3[C@@H](O[C@@H]3O[C@@H]5CO[C@@H](C)O[C@H]5[C@H](O)[C@H]3O)[C@H]3COC(=O)[C@H]23)OCO4)cc(OC)c1O [etoposide] + Cc1cn(-c2cc(NC(=O)c3ccc(C)c(Nc4nccc(-c5cccnc5)n4)c3)cc(C(F)(F)F)c2)cn1 [nilotinib] (first compound 0.1 µM, partner dose 1 µM) | 84.9 | 63.1 | 96.2 | 151 | 94.4 | 89 | 84.9 | 61.9 | – | –

Reference: the supplement of paper PMC4604168 (melanoma cell lines)
